Test results as given in ChEMBL document CHEMBL3046565, “Fungicidal and herbicidal activities of berberine related alkaloids” (2000).

System: Phytophthora infestans
Test: Antifungal activity against Phytophthora infestans on potato plant assessed as disease control at 100 ppm after 24 hr

| SMILES | Activity |
| --- | --- |
| COc1ccc2cc3[n+](cc2c1OC)CCc1cc2c(cc1-3)OCO2.[Cl-] [BERBERINE CHLORIDE] | 0% |
| COc1ccc2c(C)c3[n+](cc2c1OC)CCc1cc2c(cc1-3)OCO2.[Cl-] | 0% |
| CCc1c2[n+](cc3c(OC)c(OC)ccc13)CCc1cc3c(cc1-2)OCO3.[Cl-] | 5% |
| COc1ccc2c(c1OC)CN1CCc3cc4c(cc3[C@@H]1[C@@H]2C)OCO4.Cl | 0% |
| COc1ccc2c(c1OC)C[N+]1(C)CCc3cc4c(cc3C1=C2C)OCO4.[Cl-] (stereo not drawn) | 0% |
| CCCc1c2[n+](cc3c(OC)c(OC)ccc13)CCc1cc(OC)c(OC)cc1-2.[Cl-] | 0% |
| COc1ccc2c(c1OC)C[N@@+]1(C)CCc3cc4c(cc3[C@@H]1[C@@H]2C)OCO4.[Cl-] | 0% |
| COc1ccc2c(c1OC)CN1CCc3cc4c(cc3[C@@H]1[C@H]2O)OCO4.Cl | 0% |
| CCCCc1c2[n+](cc3c(OC)c(OC)ccc13)CCc1cc(OC)c(OC)cc1-2.[Cl-] | 0% |
| CCCCCCc1c2[n+](cc3c(OC)c(OC)ccc13)CCc1cc(OC)c(OC)cc1-2.[Cl-] [13-HEXYLPALMATINE] | 11% |
| COc1ccc2c(O)c3[n+](cc2c1OC)CCc1cc2c(cc1-3)OCO2.[Cl-] [13-HYDROXYBERBERINE] | 0% |
| CCCCCCc1c2[n+](cc3c(OC)c(OC)ccc13)CCc1cc3c(cc1-2)OCO3.[Cl-] | 47% |
| CCCc1c2[n+](cc3c(OC)c(OC)ccc13)CCc1cc3c(cc1-2)OCO3.[Cl-] | 0% |
| COc1ccc2cc3[n+](cc2c1O)CCc1cc2c(cc1-3)OCO2 [BERBERRUBINE] | 0% |
| CCOc1c(OC)ccc2c(CC)c3[n+](cc12)CCc1cc2c(cc1-3)OCO2.[Cl-] [9-O-ETHYL-13-ETHYLBERBERRUBINE] | 0% |
| COc1cc2c(cc1OC)-c1c(C)c3ccc(OC)c(OC)c3c[n+]1CC2.[Cl-] | 0% |
| CCOc1c(OC)ccc2cc3[n+](cc12)CCc1cc2c(cc1-3)OCO2.[Cl-] [9-O-ETHYLBERBERRUBINE] | 0% |
| COc1cc2c(cc1OC)-c1cc3ccc(OC)c(OC)c3c[n+]1CC2.[Cl-] [PALMATINE CHLORIDE] | 0% |
| CCc1c2[n+](cc3c(OC)c(OC)ccc13)CCc1cc(OC)c(OC)cc1-2.[Cl-] | 0% |
| COc1ccc2c(c1OC)C[N@+]1(C)CCc3cc4c(cc3[C@@H]1[C@H]2O)OCO4.[Cl-] | 0% |
| COc1cc2c(cc1OC)-c1cc3ccc(OC)c(O)c3c[n+]1CC2.[Cl-] [PALMATRUBINE] | 0% |
| COc1ccc2c(c1OC)C[N@@+]1(C)CCc3cc4c(cc3[C@@H]1[C@H]2O)OCO4.[Cl-] | 0% |
| CCCCc1c2[n+](cc3c(OC)c(OC)ccc13)CCc1cc3c(cc1-2)OCO3.[Cl-] | 11% |
